This is an account of results in PubChem BioAssay AID1745853 (National Center for Advancing Translational Sciences (NCATS), 2022).

Holding throughout (test): Primary Screen for Target Class Profiling of Small Molecule Inhibitors of Methyltransferases
Assay [1] has as its target Glycine N-methyltransferase (Homo sapiens) (UniProt Q14749). The settings on record: purified enzyme, MTase-Glo SAH luminescence; measured here: GNMT inhibition; at 40 µM; stronger effect = lower value. The gist of the method:
(§1)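 Each enzyme was assayed with SAM and its substrate. SAH formation detected by MTase-Glo luminescence; single-point 40 uM screen[…].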

Assay [2] concerns the target Guanidinoacetate N-methyltransferase (Homo sapiens) (UniProt Q14353). The settings on record: purified enzyme, MTase-Glo SAH luminescence; measured here: GAMT inhibition; at 40 µM; stronger effect = lower value. The gist of the method:
as §1

Assay [3] concerns the target Histamine N-methyltransferase (Homo sapiens) (UniProt P50135). The following applies: purified enzyme, MTase-Glo SAH luminescence; measured here: HNMT inhibition; at 40 µM; stronger effect = lower value. The gist of the method: as §1
Assay [4] deals with Nicotinamide N-methyltransferase (Homo sapiens) (UniProt P40261). The following applies: purified enzyme, MTase-Glo SAH luminescence; measured here: NNMT inhibition; at 40 µM; stronger effect = lower value. The gist of the method:
as §1

Assay [5] addresses Phenylethanolamine N-methyltransferase (Homo sapiens) (UniProt P11086). The settings on record: purified enzyme, MTase-Glo SAH luminescence; measured here: PNMT inhibition; at 40 µM; stronger effect = lower value. The gist of the method: as §1

This is one part of the list. These are further read-outs of the screen, such as a control signal, another cell line or another target. No call is given for them.
On the % scale 0 is the no-effect control and ±100 the full control effect.

`COc1ccc(OC)c(NC(=O)N2Cc3c(sc4c3CCCC4)-n3cccc3C2c2ccc(F)cc2)c1` (stereo not given): the activity change, negative = inhibition is -1.98% in assay [1]; 2.96% in assay [2]; 0.815% in assay [3]; -5.96% in assay [4]; 0.327% in assay [5].

For the molecule `OC[C@@H]1CN(Cc2cccnc2)C[C@H]1c1ccccn1`, the activity change, negative = inhibition is -3.84% in assay [1]; 0.364% in assay [2]; -1.38% in assay [3]; -2.36% in assay [4]; 0.685% in assay [5].

Take `CC1CNCCN1S(=O)(=O)c1cccc2cnccc12` (stereo not given): the activity change, negative = inhibition was -11.9% in assay [1]; 4.63% in assay [2]; 3.67% in assay [3]; -7.48% in assay [4]; 0.393% in assay [5].

Take `COc1ccc(-c2nc3c(c(=O)[nH]2)CCN(S(=O)(=O)C2CC2)C3)cc1`: the activity change, negative = inhibition in assay [1] was -2.16%; in assay [2], -1.51%; in assay [3] it was 0.452%; in assay [4], -3.02%; in assay [5], -2.12%.

As to `COc1ccc(CNC(=O)C2(C)Cn3cnc(C(=O)NCc4cccc(OC)c4)c3C(=O)N2C2CC2)cc1` (stereo not given), the activity change, negative = inhibition in assay [1] turned out to be 1.33%; in assay [2] it was 0%; in assay [3] it was 7.73%; in assay [4], 4.67%; in assay [5], 7.86%.

As for `O=C(Nc1ccc(N2CCC(NC3Cc4ccccc4C3)CC2)cc1)C1CCCC1`, the activity change, negative = inhibition was -7.05% in assay [1]; -9.59% in assay [2]; -5.29% in assay [3]; -14.3% in assay [4]; -9.92% in assay [5].

`CC1(C(=O)NCc2ccccc2Cl)Cn2cnc(C(=O)NCc3ccccc3)c2C(=O)N1C1CC1` (stereo not given): the activity change, negative = inhibition in assay [1] worked out at 3.62%; in assay [2], 2.45%; in assay [3] it was 13.6%; in assay [4] it was 7.27%; in assay [5], 9.76%.

As for `CC1=CC2=C(C)C(=O)C(C)(O)C(O)C2CO1` (stereo not given), the activity change, negative = inhibition in assay [1] is 0%; in assay [2], -1.24%; in assay [3], -1.33%; in assay [4] it was -13.5%; in assay [5] it was -1.94%.

Regarding `Cc1ccc(CNC(=O)N(C)CC2CCOCC2)cc1`, the activity change, negative = inhibition in assay [1] was -1.38%; in assay [2] it was -1.95%; in assay [3] it was -0.152%; in assay [4], -6.44%; in assay [5], 0.458%.

On to `CC1(C(=O)NC2CCCCC2)Cn2c(c(-n3cccc3)c3ccccc32)C(=O)N1Cc1ccco1` (stereo not given), for which the activity change, negative = inhibition in assay [1] was -1.96%; in assay [2] it was 4.71%; in assay [3], -7.08%; in assay [4], -7.01%; in assay [5] it was 0.687%.

On to `CN1C(=O)c2cc(C(=O)NCCCN3CCCC3)nn2CC1(C)C(=O)NCc1ccc(F)cc1` (stereo not given), for which the activity change, negative = inhibition in assay [1] is -2.24%; in assay [2], -0.379%; in assay [3] it was -11%; in assay [4], -0.028%; in assay [5], -3.84%.

Take `COc1cccc(CNC(=O)Cn2nc3n(CCC(C)C)c(=O)c4ccccc4n3c2=O)c1`: the activity change, negative = inhibition in assay [1] worked out at 6.05%; in assay [2], 1.09%; in assay [3], 11.4%; in assay [4], 7.01%; in assay [5], 5.12%.

As to `CC(C)CCN1C(=O)c2ccc(-c3ccco3)n2CC1(C)C(=O)NC1CCCCCC1` (stereo not given), the activity change, negative = inhibition was -5.2% in assay [1]; 0% in assay [2]; 4.65% in assay [3]; -1.93% in assay [4]; -0.956% in assay [5].

Consider `Cc1nc2ccc(C(=O)NC(C(=O)O)c3c(C)n[nH]c3C)cc2[nH]1` (stereo not given), for which the activity change, negative = inhibition is -1.12% in assay [1]; 2.24% in assay [2]; 2.81% in assay [3]; 0.729% in assay [4]; 8.57% in assay [5].

Consider `CC(C(=O)NCc1cccs1)n1ccc2cc(S(=O)(=O)N3CCCC3)ccc21` (stereo not given), for which the activity change, negative = inhibition in assay [1] was 1.76%; in assay [2], 0%; in assay [3], 0.885%; in assay [4], -5.37%; in assay [5], -0.268%.

For `CCCn1c(=O)c2ccc(C(=O)NC3CCCCC3)cc2n2c(=O)n(CC(=O)NC3CCCC3)nc12`, the activity change, negative = inhibition is 8.18% in assay [1]; 2% in assay [2]; 4.28% in assay [3]; 9.31% in assay [4]; 9.18% in assay [5].

Regarding `O=C(N[C@@H]1CCOC[C@H]1OCCO)c1ccc2c(c1)ncn2CCO`, the activity change, negative = inhibition in assay [1] was -1.31%; in assay [2], -13%; in assay [3], -2.11%; in assay [4], -4.1%; in assay [5], -4.35%.

As for `COc1ccc(CCN2C(=O)c3cc4ccccc4n3CC2(C)C(=O)NC2CCCC2)c(OC)c1` (stereo not given), the activity change, negative = inhibition is 3.47% in assay [1]; 8.76% in assay [2]; -0.469% in assay [3]; -2.47% in assay [4]; -1.4% in assay [5].

As to `CC1(C)Oc2ncnc(N)c2N=C1c1ccc(C2CCC(CC(=O)O)CC2)cc1` (stereo not given), the activity change, negative = inhibition in assay [1] is -5.78%; in assay [2], -0.242%; in assay [3], 6.14%; in assay [4] it was -19.5%; in assay [5] it was 3.55%.

Regarding `CC1(C(=O)NC2CCCCCC2)Cn2c(ccc2-c2ccco2)C(=O)N1Cc1ccccc1` (stereo not given), the activity change, negative = inhibition in assay [1] is -7.49%; in assay [2], 3.86%; in assay [3] it was -2.92%; in assay [4] it was -12.3%; in assay [5], -3.45%.

Regarding `CC1(C(=O)NCc2ccccc2)Cn2nc(-c3ccccc3)cc2C(=O)N1CCc1ccccc1` (stereo not given), the activity change, negative = inhibition in assay [1] was -1.67%; in assay [2], 5.64%; in assay [3], -0.434%; in assay [4] it was -1.86%; in assay [5], -4.92%.

As for `O=C1C2C=CC=CC2=NC(=S)N1CCN1CCC(=C(c2ccc(F)cc2)c2ccc(F)cc2)CC1` (stereo not given), the activity change, negative = inhibition in assay [1] was -3.16%; in assay [2] it was 12.7%; in assay [3] it was 2.4%; in assay [4] it was -0.126%; in assay [5] it was 8.37%.

Consider `CCCn1c(=O)c2ccc(Cl)cc2n2c(=O)n(Cc3ccc(C)cc3)nc12`, for which the activity change, negative = inhibition was found to be 6.7% in assay [1]; 0% in assay [2]; 14.3% in assay [3]; 4.44% in assay [4]; 6.8% in assay [5].

Take `CCCn1c(=O)c2ccccc2n2c(SCc3cccc(OC)c3)nnc12`: the activity change, negative = inhibition was -11.8% in assay [1]; 1.77% in assay [2]; 0.779% in assay [3]; -18% in assay [4]; -3.73% in assay [5].

In the case of `C=C1C(=O)OC2CC(C)C(CCC(C)O)=CCC12` (stereo not given), the activity change, negative = inhibition was 0.62% in assay [1]; 6.09% in assay [2]; 8.88% in assay [3]; -4.31% in assay [4]; 7.59% in assay [5].

Take `COc1ccc(CCNc2nc3c(S(=O)(=O)c4ccc(C)cc4)nnn3c3ccccc23)cc1OC`: the activity change, negative = inhibition is -23.1% in assay [1]; 6.25% in assay [2]; -2% in assay [3]; -2.95% in assay [4]; 1.26% in assay [5].

Turning to `Cc1c(Cl)cccc1NC(=O)Cn1c(=O)nc(N(C)c2ccccc2)c2ccccc21`, the activity change, negative = inhibition in assay [1] was -0.615%; in assay [2], 0%; in assay [3], -7.77%; in assay [4] it was -2.18%; in assay [5] it was -2.31%.

As to `CCCN1C(=O)c2cc(C(=O)NCCN3CCN(CC)CC3)nn2CC1(C)C(=O)NC1CCCC1` (stereo not given), the activity change, negative = inhibition in assay [1] is 1.64%; in assay [2] it was 3.04%; in assay [3], -0.914%; in assay [4], -1.83%; in assay [5], -1.99%.

Consider `O=C(c1ccc(Cl)cc1)N1CC2(CCN(CC3CC3)CC2)Cc2ccccc21`, for which the activity change, negative = inhibition in assay [1] was -3.44%; in assay [2], -2.16%; in assay [3], -82.7%; in assay [4] it was -20.9%; in assay [5], -5.5%.

Regarding `CCC(C)NC(=O)c1ccc2c(=O)n(C)c3nn(CC(=O)Nc4ccc(C)cc4Cl)c(=O)n3c2c1` (stereo not given), the activity change, negative = inhibition was determined as 9.29% in assay [1]; 4.13% in assay [2]; 11.6% in assay [3]; 5.23% in assay [4]; 6.12% in assay [5].
